Data reported in paper PMC5892938.
Some of the results follow. At the low end of the ranking the order means little.
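Also: DESeq read counts versus GST-SBP nonspecific binding control pulldown.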

Each sequence was assayed against GST-SBP-SLBP (stem-loop binding protein) (UniProt Q14493) (assay: targeted RNA Bind-n-Seq). Conditions: RBNS binding buffer: 25 mM Tris pH 7.5, 150 mM KCl, 3 mM MgCl2, 0.1% Tween, 0.5 mg/mL BSA, 1 mM DTT; 27 nM protein, 750 pM RNA pool; temperature not stated; high values mean tight binding.
Sequence “GGUCACGUCUCAAUCAACUCUUCUCCCAGGGAAAGCCCUGGCUAUGUCAACAGCUCGCAGUCAAG” has a binding signal (log2 fold change) of -0.208. Work on “GGUCACGUCUCAAUCAACUCUUCCCCCAGGGAAAUCCCUGGCAAUGUCAACAGCUCGCAGUCAAG” yielded a binding signal (log2 fold change) of -0.0416. “GGUCACGUCUCAAUCAACUCAAUCUCAGGAGUUUACUCCUGUAAUCUCAACAGCUCGCAGUCAAG” was tested, and the binding signal (log2 fold change) was 0.0307. “GGUCACGUCUCAAUCAACUCAUACGAGGGGGGGAAAACCCCUUUACCCUCAAUCUCAACAGCUCGCAGUCAAG” gave a binding signal (log2 fold change) of 0.149. In the case of “GGUCACGUCUCAAUCAACUCAUUUCCAGGAGUUUGCUCCUGCAAUCUCAACAGCUCGCAGUCAAG”, the binding signal (log2 fold change) is reported as 0.0311. With “GGUCACGUCUCAAUCAACUCAUCCCCCAGGGAAAGCCCUGGUAUUUUCAACAGCUCGCAGUCAAG” the binding signal (log2 fold change) was -0.281. “GGUCACGUCUCAAUCAACUCUACUCCCAGGGAAACCCCUGGUAAUUUCAACAGCUCGCAGUCAAG” gave a binding signal (log2 fold change) of 0.236. With “GGUCACGUCUCAAUCAACUCAAGUCCCAGGGAAACCCCUGGCUAAUUCAACAGCUCGCAGUCAAG” the binding signal (log2 fold change) was -0.279. “GGUCACGUCUCAAUCAACUCAACUCCAGGAGUUUACUCCUGUUAACUCAACAGCUCGCAGUCAAG” gave a binding signal (log2 fold change) of -0.0113. Sequence “GGUCACGUCUCAAUCAACUCUACUCCCAGGGAAAACCCUGGCUAAUUCAACAGCUCGCAGUCAAG” has a binding signal (log2 fold change) of -0.021. Sequence “GGUCACGUCUCAAUCAACUCAUUUCCCAGGGAAAUCCCUGGCUUUUUCAACAGCUCGCAGUCAAG” has a binding signal (log2 fold change) of -0.301. With “GGUCACGUCUCAAUCAACUCAUAAGAGGGGGGGAAAACCCCUUUGCCCUCCACAUCAACAGCUCGCAGUCAAG” the binding signal (log2 fold change) was 0.145. With “GGUCACGUCUCAAUCAACUCUAUCUCCAGGGAAAUCCCUGGCAAUUUCAACAGCUCGCAGUCAAG” the binding signal (log2 fold change) was -0.0912. “GGUCACGUCUCAAUCAACUCUAGUCCCAGGGAAAACCCUGGCUUAUUCAACAGCUCGCAGUCAAG” was tested, and the binding signal (log2 fold change) was -0.279. “GGUCACGUCUCAAUCAACUCAACUUCCAGGGAAAUCCCUGGCAUACUCAACAGCUCGCAGUCAAG” was tested, and the binding signal (log2 fold change) was 0.0156. Work on “GGUCACGUCUCAAUCAACUCAGUCGAGGGGGGGAAAACCCCUUUACCCUCAAUAUCAACAGCUCGCAGUCAAG” yielded a binding signal (log2 fold change) of -0.076. For “GGUCACGUCUCAAUCAACUCUAUUUCAGGAGUUUUCUCCUGCUAUUUCAACAGCUCGCAGUCAAG”, the binding signal (log2 fold change) was 0.0639. Sequence “GGUCACGUCUCAAUCAACUCACUAGAGGGGGGGAAAACCCCUUUACCCUCCCAAUCAACAGCUCGCAGUCAAG” has a binding signal (log2 fold change) of -0.0462. Sequence “GGUCACGUCUCAAUCAACUCAACUUCCAGGGAAAACCCUGGCGUAUUCAACAGCUCGCAGUCAAG” has a binding signal (log2 fold change) of 0.25. For “GGUCACGUCUCAAUCAACUCAUUUCCCAGGGAAAUCCCUGGCUAUCUCAACAGCUCGCAGUCAAG”, the binding signal (log2 fold change) was 0.0811. “GGUCACGUCUCAAUCAACUCUACUCCCAGGGAAAGCCCUGGCAUACUCAACAGCUCGCAGUCAAG” gave a binding signal (log2 fold change) of 0.193. Work on “GGUCACGUCUCAAUCAACUCAUUCUCCAGGGAAACCCCUGGUUAUUUCAACAGCUCGCAGUCAAG” yielded a binding signal (log2 fold change) of 0.0201. With “GGUCACGUCUCAAUCAACUCUCUAGAGGGGGGGAAAACCCCUUUACCCUCCUACUCAACAGCUCGCAGUCAAG” the binding signal (log2 fold change) was -0.00694. “GGUCACGUCUCAAUCAACUCUUUAGAGGGGGGGAAAACCCCUUUGCCCUCAACAUCAACAGCUCGCAGUCAAG” gave a binding signal (log2 fold change) of 0.187. “GGUCACGUCUCAAUCAACUCAAUCCCAGGAGUUUACUCCUGUAGUCUCAACAGCUCGCAGUCAAG” gave a binding signal (log2 fold change) of -0.00604. Sequence “GGUCACGUCUCAAUCAACUCAAUCCCAGGAGUUUUCUCCUGCAAAUUCAACAGCUCGCAGUCAAG” has a binding signal (log2 fold change) of -0.0302. “GGUCACGUCUCAAUCAACUCAAUUCCAGGAGUUUACUCCUGCUUAUUCAACAGCUCGCAGUCAAG” gave a binding signal (log2 fold change) of -0.0529. “GGUCACGUCUCAAUCAACUCAGUCUCAGGAGUUUCCUCCUGCUUUUUCAACAGCUCGCAGUCAAG” was tested, and the binding signal (log2 fold change) was 0.0254. Work on “GGUCACGUCUCAAUCAACUCAUACGAGGGGGGGAAAACCCCUUUACCCUCACCAUCAACAGCUCGCAGUCAAG” yielded a binding signal (log2 fold change) of 0.0959. Sequence “GGUCACGUCUCAAUCAACUCUCACGAGGGGGGGAAAACCCCUUUACCCUCUUAAUCAACAGCUCGCAGUCAAG” has a binding signal (log2 fold change) of 0.161. In the case of “GGUCACGUCUCAAUCAACUCAAUUCCCAGGGAAAGCCCUGGUUUAUUCAACAGCUCGCAGUCAAG”, the binding signal (log2 fold change) is reported as -0.109. “GGUCACGUCUCAAUCAACUCACAAGAGGGGGGGAAAACCCCUUUGCCCUCAUAAUCAACAGCUCGCAGUCAAG” gave a binding signal (log2 fold change) of -0.548. Sequence “GGUCACGUCUCAAUCAACUCCUCGGAGGGGGGGAAAACCCCUUUACCCUCACUAUCAACAGCUCGCAGUCAAG” has a binding signal (log2 fold change) of 0.194. Work on “GGUCACGUCUCAAUCAACUCAUUCUCCAGGGAAAGCCCUGGCUUACUCAACAGCUCGCAGUCAAG” yielded a binding signal (log2 fold change) of -0.0371. Sequence “GGUCACGUCUCAAUCAACUCUAAAGAGGGGGGGAAAACCCCUUUGCCCUCAAACUCAACAGCUCGCAGUCAAG” has a binding signal (log2 fold change) of 0.183. Sequence “GGUCACGUCUCAAUCAACUCACUAGAGGGGGGGAAAACCCCUUUGCCCUCAACAUCAACAGCUCGCAGUCAAG” has a binding signal (log2 fold change) of -0.0129. Work on “GGUCACGUCUCAAUCAACUCAAGUCCAGGAGUUUUCUCCUGCUUUUUCAACAGCUCGCAGUCAAG” yielded a binding signal (log2 fold change) of -0.122.
